# Whole data set: some 33,000 sequences, median “E-score (-0.5 to 0.5)” near -0.043, cut for the highest 2% near 0.37. This is one part of the list.
# Molecular target: T1, Upc2 (UniProt Q12151)
# T1 sequence: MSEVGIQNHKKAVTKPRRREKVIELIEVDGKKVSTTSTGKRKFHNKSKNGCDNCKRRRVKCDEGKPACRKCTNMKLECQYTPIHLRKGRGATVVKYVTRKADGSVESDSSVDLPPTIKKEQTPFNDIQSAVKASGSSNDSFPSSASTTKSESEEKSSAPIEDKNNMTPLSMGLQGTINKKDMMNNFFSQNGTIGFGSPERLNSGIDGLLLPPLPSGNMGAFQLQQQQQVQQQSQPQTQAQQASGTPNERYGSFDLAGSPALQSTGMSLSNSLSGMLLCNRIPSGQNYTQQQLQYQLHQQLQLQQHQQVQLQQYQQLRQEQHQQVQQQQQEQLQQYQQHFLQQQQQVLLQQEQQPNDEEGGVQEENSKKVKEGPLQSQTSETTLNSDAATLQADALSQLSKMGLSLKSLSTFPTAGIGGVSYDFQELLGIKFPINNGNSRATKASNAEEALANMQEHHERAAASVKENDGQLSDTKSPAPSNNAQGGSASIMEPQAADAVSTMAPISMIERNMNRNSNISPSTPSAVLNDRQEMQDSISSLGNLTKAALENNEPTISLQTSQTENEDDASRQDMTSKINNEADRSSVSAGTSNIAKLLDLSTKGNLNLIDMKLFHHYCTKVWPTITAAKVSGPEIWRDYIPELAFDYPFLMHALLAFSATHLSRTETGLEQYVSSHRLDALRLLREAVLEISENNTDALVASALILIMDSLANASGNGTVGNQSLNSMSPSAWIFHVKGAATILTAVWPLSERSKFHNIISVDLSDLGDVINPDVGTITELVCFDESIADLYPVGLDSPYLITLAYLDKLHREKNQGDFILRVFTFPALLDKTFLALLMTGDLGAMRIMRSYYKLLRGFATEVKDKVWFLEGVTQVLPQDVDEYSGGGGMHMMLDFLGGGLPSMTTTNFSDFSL
# Test: PBM E-score (8-mer binding enrichment) (E-score (-0.5 to 0.5)); higher = stronger / more preferred TF binding; most listed sequences are background and not binding sites
# Settings: protein concentration: 200 nM; construct: GST-full length
# Summary of the method: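 Bound GST-tagged yeast transcription factors, applied at about 100-200 nM to double-stranded universal all-10-mer Agilent arrays, were detected with fluorescent anti-GST. Scans were normalised with masliner. A modified Wilcoxon-Mann-Whitney statistic, the E-score, was assigned to each ungapped eight-base word pooled with its reverse complement by the Universal PBM Analysis Suite.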
row,Sequence,PBM E-score
1,GACGCTGA,-0.125
2,GCTTGACA,-0.215
3,AACTGTGT,-0.137
4,AGCAAGCA,-0.103
5,ACGCGGAT,0.202
6,ATTTCCCG,0.0793
7,TAGAGGAA,-0.115
8,ATCACGCA,-0.15
9,AAAGCGCT,0.127
10,GTAGCGGA,0.184
11,CGTCGGGA,0.132
12,CTGGTCGC,-0.0371
13,ATTGGCAA,-0.0524
14,CGTCACTA,-0.0224
15,CCAATCAG,-0.173
16,AGCGGCAG,-0.0199
17,CCGTGTTA,-0.0507
18,ACCTTTAG,-0.194
19,ACTAAGGC,-0.223
20,ATGTACTA,0.0361
21,CCTGTTAA,-0.117
22,ATAGAACA,-0.161
23,AAAGGTCT,-0.0303
24,AGAGTGTA,-0.0753
25,CGGCCCAC,-0.287

row,Sequence,PBM E-score
1,GGCATCGA,-0.168
2,CCCTCCGC,-0.179
3,AATACACA,0.0581
4,ACTTCAGA,-0.00925
5,TAGCGCCA,-0.0831
6,CAACTGAG,0.00646
7,GACAACCA,-0.041
8,CGGTCAAC,0.148
9,AGACGCCG,0.0212
10,GAAGCCGA,-0.108
11,TAGGGATA,-0.108
12,CTGGTTAA,-0.00033
13,CCTCTTAG,-0.0365
14,ATGTGGAA,0.0482
15,GGAATAAC,0.154
16,CGGGAATC,-0.0629
17,GCTGGGCC,-0.217
18,TATTCACA,0.101
19,CACTCGCG,0.0771
20,TAGTTTGA,0.181
21,CTCGTACA,0.489
22,ACGTGTGA,-0.0987
23,ATAACGCC,-0.0542
24,ACTGTTCG,0.16
25,ATCGCGTA,0.243

row,Sequence,PBM E-score
1,AACTCTTC,-0.0296
2,TAAACGTA,0.407
3,AACCGGTG,0.0679
4,ACCTATGG,-0.199
5,CTATCCCA,-0.0733
6,GAGAAACC,-0.0175
7,AGACGAGG,0.215
8,CCTCCTTA,0.0732
9,AGTAATTA,-0.127
10,CCATCCGC,0.0979
11,AAGTTTGT,-0.112
12,AACCGATC,0.168
13,GTCACATA,0.00148
14,CATCTCAC,-0.0639
15,CTCTCTCA,-0.303
16,CACACACC,0.0034
17,CTCCGGCC,-0.206
18,AAGGATTG,-0.175
19,ACATCGTG,-0.0454
20,AGCACCAA,-0.209
21,CACGCCTG,-0.276
22,AAGTACCG,0.0804
23,CTGAACGA,0.472
24,ATGCCGTA,0.344
25,CGCATTGC,-0.0225

row,Sequence,PBM E-score
1,CGGATCAC,-0.00707
2,GCCTTACA,0.00283
3,AGACAGCC,-0.108
4,CCCTTTAA,-0.179
5,TATACGGA,0.47
6,AAGTTCTC,-0.152
7,AGTAAGCG,0.0959
8,TATGCTAA,-0.092
9,CCACCGTC,-0.227
10,TACAGCCA,-0.154
11,TTCCACAA,-0.0408
12,CGTAATAA,0.253
13,ACGAGGAC,0.384
14,CGCACTAA,0.117
15,CGTATCGC,0.363
16,ATCGAAGA,0.105
17,GCCCCCAC,-0.244
18,CTCCTCTC,-0.0491
19,ACTGACAC,-0.167
20,AAGGGAAT,-0.0354
21,ATTCCACC,-0.0449
22,GAGCCGAA,-0.0102
23,TGGCGTAA,0.0743
24,CCTCAAGG,-0.289
25,CAAGGCAG,-0.32

row,Sequence,PBM E-score
1,AGGCGTGA,-0.00507
2,ATGCAGGC,-0.0697
3,CGATCCAC,0.128
4,AAAGAGGC,0.0418
5,GATAAGCC,-0.225
6,CCGCTCCA,0.0472
7,ACCCACCG,-0.14
8,CACGCGTG,-0.0413
9,TACCCAGA,-0.0643
10,CCGATCAG,0.0147
11,CGTAGTTA,0.123
12,ATCGGGAA,0.0315
13,CCCCGTTC,0.299
14,AACCGTAC,0.311
15,CACCGAAC,-0.0384
16,ACGTTAAT,0.2
17,GTAATCAC,-0.0428
18,AGCGCACA,0.0267
19,ACATGGGA,-0.108
20,GGCTTGTA,-0.0806
21,ATTCCTGG,-0.223
22,GCGGCCAA,-0.173
23,ATTACTAG,-0.227
24,GAAGGGGA,-0.169
25,GACCGGTC,-0.0292

row,Sequence,PBM E-score
1,GTATGTAA,0.258
2,GACCTTCC,-0.0512
3,CACAATTA,0.157
4,ACACGGAC,-0.0783
5,CCCGTAAA,0.381
6,AGGCTCCA,-0.276
7,CATATTAG,0.024
8,CCCAGGCA,-0.37
9,AGACGTAC,0.223
10,AACCTCTC,-0.264
11,AACGGCCG,0.199
12,CGATACTC,0.178
13,CCGTGAGG,-0.331
14,TCGTTAGA,0.312
15,CTGTTGGC,-0.209
16,ATGCGGAG,-0.218
17,AGTTCTAT,-0.0417
18,ACAACATG,0.0906
19,ACGAGTGA,0.352
20,ACACCTAT,0.0177
21,TGTTAGAA,-0.177
22,GTAACTTA,0.0946
23,GGTTTCAC,-0.111
24,GGCTGGGA,-0.165
25,GCCTCTCA,-0.25

row,Sequence,PBM E-score
1,CATCCCGA,-0.178
2,GTATAAAA,0.348
3,CGCGCGAC,0.129
4,AAAGGGGA,-0.172
5,TCCGAACA,-0.0096
6,ACACTGTG,-0.18
7,ACACGCAC,-0.0963
8,AGTGACCA,-0.153
9,GGCGCGAA,-0.125
10,GTGAACAC,-0.0994
11,ATATATTA,0.064
12,TCTTAGCA,-0.0981
13,AGTAAGTG,-0.167
14,AACACCTA,-0.171
15,CACGCAAC,0.0992
16,ACGGTCAC,0.032
17,CCCATGCC,-0.233
18,CAGCAGCC,-0.102
19,CGTACCAC,0.407
20,GCTACCCC,-0.256
21,CAGAAGGG,-0.19
22,GACACACA,0.00071
